# The campaign covered roughly 340,000 compounds. About 6,900 (2%) were called active. No stated cut-off is given here; in the data, active means inhibition above about 30%; inactive means below that, where a call was filed. This is a selection; strong and weak results do not stand in their true shares. Entries without a call were filed so in the source. Some compounds were tested as several samples or in several runs, with calls that do not always agree.
# Molecular target: D(2) dopamine receptor (Homo sapiens) (UniProt P14416)
# Experiment: HTS Assay for Allosteric Antagonists of the Human D2 Dopamine Receptor: Primary Screen for Antagonists; further: 0% is about no effect
# Settings: HEK293 TREx D2 cells, calcium flux, dopamine EC80; at 10 µM; stronger effect = higher value
# Excerpt: NIH Chemical Genomics Center [NCGC] NIH Molecular Libraries Probe Centers Network [MLPCN] MLPCN Grant: NS064831-01 Assay Submitter (PI): David Sibley Dopamine receptors (DARs) are involved in the etiology and/or therapy of a number of neuropsychiatric and endocrine disorders. For instance, all receptor-based antiparkinsonian drugs work via stimulating the D2 DAR subtype whereas all FDA-approved antipsychotic agents are antagonists of this receptor. […] There are three different types of allosteric modulators that we are seeking, two of which will stimulate or augment receptor signaling, allosteric agonists and potentiators, while the third, allosteric antagonists, will attenuate receptor signaling. The present primary screening assay measures compound antagonism after an EC80 addition of dopamine by tracking calcium flux in a […], inducible Hek293 Trex D2 cell line.
# Freshly passaged cells are plated in 1536 well black, clear bottom plates at a density of 4000 cells/well in 3 ul of complete media containing 1x tetracycline inducer. After an overnight incubation at 30 C in 5% CO2, cells are loaded with 2 ul of the no wash Calcium Assay Kit (ABD Bioquest) and incubated at room temperature for 30 to 90 minutes. Agonist read: A 10 cycle (1 second/cycle) baseline measurement is taken and then the FDSS online 1536 pintool delivers 23 nl of compound library (as well as dopamine controls) to the plate. The plate is measured for kinetically at 1 cycle/sec for 180 seconds. Following the 180 second read, 1 ul of an EC80 (negative modulation assay) is delivered by an onboard pipette head. Measurements are taken kinetically for an additional 180 seconds.
# Chain of UniProt P14416 (P14416 whole entry, looked up): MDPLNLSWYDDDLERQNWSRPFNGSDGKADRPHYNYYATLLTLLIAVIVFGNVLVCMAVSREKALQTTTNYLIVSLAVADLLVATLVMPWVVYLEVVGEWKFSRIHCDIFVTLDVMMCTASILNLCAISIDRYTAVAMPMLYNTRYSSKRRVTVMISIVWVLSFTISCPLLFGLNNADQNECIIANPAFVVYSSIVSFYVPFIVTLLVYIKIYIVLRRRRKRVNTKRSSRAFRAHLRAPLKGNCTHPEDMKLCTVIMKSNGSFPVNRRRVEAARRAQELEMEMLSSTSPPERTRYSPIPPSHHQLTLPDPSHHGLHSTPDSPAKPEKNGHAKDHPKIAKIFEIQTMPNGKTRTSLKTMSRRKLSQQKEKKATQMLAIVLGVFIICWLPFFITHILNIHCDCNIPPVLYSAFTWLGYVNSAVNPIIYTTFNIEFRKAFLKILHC
row,Compound,inhibition
1,O=C(Nc1sc2c(c1C(=O)NCc1ccccc1)CCCC2)c1cc(=O)c2ccccc2o1,15.8%
2,Cc1nc(-c2ccccc2)sc1CCNC(=O)C(=O)Nc1ccc(F)c(Cl)c1,-14.4%
3,NC(=O)c1ccccc1NC(=O)CN1c2ccccc2S(=O)(=O)c2ccccc21,1.57%
4,Cc1ccc(C)c(N2CCN(C(=O)c3ccc4c(=O)n(CCc5ccccc5)c(=O)[nH]c4c3)CC2)c1,4.89%
5,COCCc1nn2c(=O)cc(COC(=O)c3ccccc3C)nc2s1,7.86%
6,CCCSCCCNC(=O)CN1C(=O)COc2ccc(S(=O)(=O)N3CCCC3)cc21,-10%
7,O=C(Nc1cc(-c2ccc(Cl)cc2)no1)c1ccc(F)cc1,-0.455%
8,COc1ccc(CC(C)N2CCN(c3ccccc3OC)CC2)cc1OC (centres undefined),active: 88.6%
9,CCOC(=O)c1[nH]c2c(c1Cc1ccccc1OC)C(=O)CC(c1ccccc1)C2 (centres undefined),10.2%
10,CCCCn1c(=O)c2oc3ccccc3c2n(Cc2ccccc2C)c1=O,7.05%
11,COc1ccc(S(=O)(=O)N(CC(=O)Nc2ccccc2Cl)Cc2ccccc2)cc1,-12%
12,O=C(Nc1cccc(Cl)c1)c1cc(-c2ccc3c(c2)OCO3)on1,9.36%
13,Cc1ccc(CCNC(=O)CN2C(=O)COc3ccc(S(=O)(=O)N4CCCCCC4)cc32)cc1,-7.2%
14,COc1cc(OC)cc(C(=O)Nc2ccc3nc4n(c(=O)c3c2)CCCCC4)c1,-10.3%
15,COc1ccccc1C(=O)Oc1c(Sc2ccccc2)c(C)nn1-c1ccccc1,-11.8%
16,COc1ccc(NS(=O)(=O)c2ccc3[nH]c(=O)ccc3c2)cc1OC,-25.8%
17,COc1cccc(-n2nnc(-c3nc(-c4cccs4)no3)c2N)c1,0.597%
18,CCOc1ccc(S(=O)(=O)Nc2cccc(OC)c2)c2cccnc12,-8.64%
19,COc1cc(NC(=O)CCN2CCN(c3ccccc3F)CC2)cc(OC)c1,active: 40.2%
20,O=C1CS(=O)(=O)C2(C(=O)N(Cc3ccccc3)c3ccccc32)N1c1ccc(F)c(Cl)c1 (centres undefined),9.56%
21,CCOC(=O)CSc1nc2cc(OC)c(OC)cc2c2nc(-c3ccccc3)nn12,4.88%
22,COC(=O)c1sccc1S(=O)(=O)N(CC(=O)NCc1ccc(C)cc1)c1ccc(C)c(C)c1,17.5%
23,CCOC(=O)C1=C(C)N=C2SCCC(=O)N2C1c1ccc(OCc2ccccc2)c(OC)c1 (centres undefined),4.26%
24,Cc1cc(NC(=O)c2cc(Cl)ccc2Cl)ccc1-c1cc2ccccc2oc1=O,-15.8%

row,Compound,inhibition
1,CC(=O)c1c(C)oc2c1cc(NS(=O)(=O)c1c(C)cc(C)cc1C)c1ccccc12,8.61%
2,CCC1CCC(N2CCN(c3ccccc3F)CC2)CC1 (centres undefined),active: 36.7%
3,NS(=O)(=O)c1ccc(NC(=O)COc2ccc(S(=O)(=O)NC3CCCCC3)cc2)cc1,-6.86%
4,CCN(CC)C(=O)Cn1c(=O)n(Cc2ccc(C(=O)NCCCOC)cc2)c(=O)c2ccccc21,8.01%
5,CCn1c2c(c(=O)n3ncc(C(=O)N4CCN(c5ccc(C(C)=O)cc5)CC4)c13)CN(Cc1ccc(OC)cc1)CC2,-1.79%
6,Cc1ccc(C)c(N2C(=O)N(Cc3cccc(C(F)(F)F)c3)c3ccccc3S2(=O)=O)c1,3.17%
7,COc1ccc(F)cc1S(=O)(=O)Nc1ccc2c(c1)CCCN2C(=O)c1cccs1,-6.94%
8,CC(=O)c1cccc(NC(=O)[C@H]2O[C@@H]3OC(C)(C)O[C@@H]3[C@H]3OC(C)(C)O[C@H]32)c1,8.93%
9,C=CCn1c(SCCCC)nc(O)cc1=O,active: 30.8%
10,COc1ccc(-c2nc3scc(CCNS(=O)(=O)c4ccc(Oc5ccccc5)cc4)n3n2)cc1,11%
11,CCOC(=O)c1ccc(NC(=O)C(C)Sc2nc(=O)cc(N)n2CCc2ccccc2)cc1 (centres undefined),6.19%
12,COc1ccc(OCC(=O)N(Cc2sccc2C)C2CCS(=O)(=O)C2)cc1 (centres undefined),-1.22%
13,COc1ccc(-c2nnc(SCC(=O)N3CCc4ccccc43)o2)cc1OC,5.44%
14,CCN(CC)CCCNC(=O)c1cn(CC(C)C)c(=O)c2c1c1ccccc1n2C,22.6%
15,COc1ccccc1Nc1c2c(nc3ccc(NC(=O)c4ccccc4F)cc13)CCCC2,2.48%
16,COc1ccc(OC)c(C(=O)CSc2ncc3c(n2)-c2ccccc2N(Cc2ccccc2C)S3(=O)=O)c1,-3.96%
17,COc1cc2[nH]c(=O)n(CCC(=O)NCCCN3CCN(c4ccccc4F)CC3)c(=O)c2cc1OC,active: 95.8%
18,Cc1cc2c(cc1NC(=O)c1ccccc1Cl)n(C)c(=O)c(=O)n2C,-8.04%
19,Cc1cccc(CCn2c(=O)c3ccccc3n(CC(=O)Nc3ccccc3F)c2=O)c1,1.06%
20,Cc1ccc(C)c(N2CCN(CCCNC(=O)c3cnn(-c4ccccc4)c3C3CCN(C(=O)OC(C)(C)C)CC3)CC2)c1,-9.59%
21,CCN(Cc1ccccc1)Cc1c(O)ccc2c(=O)c(-c3ccc(Cl)cc3)c(C(F)(F)F)oc12,-6.42%
22,O=C(NCc1ccccc1Cl)c1c2c(nc3ccccc13)C(=O)N(C1CCCCC1)C2,5.41%
23,CCCCC(=O)Nc1ccc(OCc2cc(=O)n3c(C)csc3n2)cc1,9.83%
24,COC(=O)CCCCCn1c(-c2ccccc2)cn2c3c(=O)n(C)c(=O)n(C)c3nc12,-6.36%

row,Compound,inhibition
1,COCCCNC(=O)c1ccc(CS(=O)(=O)c2ccccc2OC)o1,active: 32.9%
2,O=C(Cn1nc(-c2ccc(Cl)cc2)c2ccccc2c1=O)Nc1cccc(C(F)(F)F)c1,-15.2%
3,CCCCCCCCC(=O)N/N=C(\C)c1ccc(O)cc1O,active: 49%
4,O=C(NC1CCN(Cc2ccc(Cl)c(Cl)c2)CC1)c1ccccc1,active: 81%
5,Cn1c(=O)c(=O)n(C)c2cc(C(=O)NCc3ccccc3Cl)ccc21,-1.92%
6,COC(=O)c1scc(-c2ccc(C)cc2)c1S(=O)(=O)N1CCN(c2ccc(C)cc2C)CC1,-1.27%
7,COc1cccc(Nc2nc3ccccc3c3nncn23)c1,-1.16%
8,COc1ccc(C(CNC(=O)c2oc3cc(C)c(Cl)cc3c2C)N2CCCCC2)cc1 (centres undefined),-4.09%
9,Cc1ccc(C(=O)NC(=S)NNC(=O)c2ccc([N+](=O)[O-])cc2)cc1,active: 33.2%
10,COCCNC(=O)CCc1c(C)n(C)c2cc(-c3cc(OC)c(OC)c(OC)c3)nn2c1=O,10.6%
11,CC1CCN(S(=O)(=O)c2ccc3nc(NCc4ccccc4)ccc3c2)CC1,9.15%
12,COc1ccc(NS(=O)(=O)c2ccc(-c3cnc(C4CC4)o3)cc2)cc1Cl,-3.67%
13,C/C(CCc1ccc2c(c1)OCO2)=N\N=C1\NC(=O)CC(C(=O)Nc2ccccc2F)S1 (centres undefined),active: 40.4%
14,O=C(CCSCc1cnn(-c2ccccc2)c1-n1cccc1)NCc1ccccc1Cl,13%
15,Cc1ccc(Cl)cc1N1CCN(C(=O)c2ccc(CS(=O)c3ccccc3)o2)CC1 (centres undefined),6.51%
16,Cc1cc(C)cc(Nc2cc(C(=O)NCCCN(C)C3CCCCC3)c3ccccc3n2)c1,21.6%
17,COCCNC(=O)c1nn(-c2ccc(C)cc2)c(=O)n(C)c1=O,-20.4%
18,CCOC(=O)C1CCN(c2ccccc2CN2CCN(c3ccccc3OCC)CC2)CC1,active: 61.3%
19,CCCNC(=O)CCCN1C(=O)CCn2nc(-c3cccn3C)cc21,-4.36%
20,CCc1ccc2oc(-c3ccc(NC(=O)c4cc5ccccc5o4)cc3)nc2c1,6.28%
21,COCCCNC(=O)c1sc2nc(C)c(C(=O)Nc3ccc(C)cc3C)c(-c3ccccc3Cl)c2c1N,-2.97%
22,CCCNC(=O)Cn1c(=O)c2cccn2c2cccnc21,6.86%
23,CCCNC(=O)C1Cc2cc(S(=O)(=O)N3CCCCCC3)ccc2N1C(C)=O (centres undefined),9.25%
24,COc1cc(C(=O)O)nc2ccc([N+](=O)[O-])cc12,active: 38.4%

row,Compound,inhibition
1,COC(=O)c1ccc(C(=O)OC)c(NC(=O)c2cc3nc(-c4ccc(C)cc4)cc(C(F)(F)F)n3n2)c1,-13.3%
2,CCn1c(C(=O)NCc2ccccc2Br)cc2oc3ccccc3c21,7.77%
3,CCCn1cnc2cc(NCc3ccccc3OCC)ccc21,6.57%
4,O=C(Nc1cccc([N+](=O)[O-])c1)C1CC(=O)N(C2CCCCC2)C1 (centres undefined),active: 30.6%
5,COc1cc2[nH]c(C(=O)NCc3ccccc3)cc2c(OC)c1OC,active: 83.8%
6,C/C=C\C(=O)Nc1cccc(C2=NOC3(C2)C[C@@H](C(N)=O)N(C(=O)C2(C)CC2)C3)c1 (some centres undefined),active: 34.3%
7,CC(=O)c1ccc(NC(=O)CSc2cn(CC(=O)N(C(C)C)C(C)C)c3ccccc23)cc1,-14.3%
8,CCCCN(CC)C(=O)CCNS(=O)(=O)c1ccc2c(c1)c(=O)n(C)c(=O)n2C,-5.49%
9,CCS(=O)(=O)N1CCc2cc(C(=O)Nc3cccc(C(C)=O)c3)ccc21,-14.2%
10,CCCOc1cccc(C2c3c(-c4ccccc4O)n[nH]c3C(=O)N2Cc2ccco2)c1 (centres undefined),-0.469%
11,CC(C)CCn1c(Oc2ccccc2F)nc2c1c(=O)n(C)c(=O)n2C,3.08%
12,Cc1cc(=O)n2[nH]c(C)c(-c3ccc(Cl)cc3)c2n1,active: 45.6%
13,COc1ccc(C2=NS(=O)(=O)N(C)C(C(=O)N(C)Cc3ccccc3)=C2)cc1OC,9.22%
14,Cc1ccccc1OCc1nc2ccccc2n1Cc1ccccc1Cl,7.72%
15,O=C(NCc1ccccc1Cl)c1ccc(Nc2nc3ccccc3n3nnnc23)cc1,21.3%
16,Cc1ccc(OCc2nc(-c3ccc(C(=O)N4CCN(c5ccccc5)CC4)cc3)oc2C)cc1,11.2%
17,CCc1ccc(C2c3c(-c4cc(C)ccc4O)n[nH]c3C(=O)N2Cc2cccnc2)cc1 (centres undefined),-6.71%
18,CCc1cnc2c(c1SCC(=O)N1CCC(C)CC1)c(=O)n(C)c(=O)n2C,5.83%
19,Cc1nn(CCC(=O)N2CCN(c3ccccc3)CC2)c(C)c1S(=O)(=O)N1CCCC1,-26.4%
20,Cc1c(NC(=O)Nc2ccc(F)c(Cl)c2)c(=O)n(-c2ccccc2)n1C,-6.79%
21,CCOC(=O)c1c(S(=O)(=O)N2CCC(C(=O)Nc3ccc(OCC)cc3)CC2)c(C)n(C)c1C,-3.85%
22,CCCCN(CCCC)CCNC(=O)c1cn(C)c2ccc(S(=O)(=O)N3CCCC3)cc2c1=O,17.3%
